Measurements from the RNAGym collection of RNA variant scans (doi:10.7554/elife.90254).
Read counts are not given, so values of variants with three or more changes are uncertain.

B1: OR4K15 (parent)
chain: GUUAACGGUCAUAGGCCAUGGAAACUAGGAGCACCAUUUCGCUGCCAGUGAAGAAAUGAACAAAGAAAAUCUGGGCCAGGCAGGCAUCAAAAGAAAUAGUCUUGCGCUCAACCAGAAAGUCUGUAAUCAUUUUAAGGGUA

Variants of: B1
Assay: self-cleavage, relative activity (ratio to wild type); higher = more cleavage; in vitro, sequencing; the parent is a self-cleaving ribozyme

Q: Which self-cleavage does the source give for U39C U100C U132C here?
A: 2.92

Q: Which self-cleavage does the source give for C45U G50U U108C here?
A: 0.02

Q: With A33G A89G A91G A92G as the variant, how does the self-cleavage read?
A: 0.47

Q: For A5G A22G U37C, which self-cleavage is on record?
A: 0.96

Q: With A24G A67G A92G G123A as the variant, how does the self-cleavage read?
A: 0.34

Q: Which self-cleavage does the source give for A51G U108A U132C here?
A: 0

Q: Which self-cleavage does the source give for A24C A67U A91G A94G here?
A: 1.33

Q: Which self-cleavage does the source give for A52U U57C C71U U87C here?
A: 0.25

Q: With A54G C77U A116C as the variant, how does the self-cleavage read?
A: 0.37

Q: With A5G U12A A69G as the variant, how does the self-cleavage read?
A: 1.28

Q: Which self-cleavage does the source give for A33G A78G A82G U127G here?
A: 0.08

Q: With C10U A62G U131C as the variant, how does the self-cleavage read?
A: 0.92

Q: Which self-cleavage does the source give for G1U A56G U108A A111G here?
A: 0.09

Q: With U9A A63G A64G U97C U100C as the variant, how does the self-cleavage read?
A: 2.25

Q: Which self-cleavage does the source give for A51G U70A A117G here?
A: 1.14

Q: For A30G C42U U87C, which self-cleavage is on record?
A: 0.25

Q: Which self-cleavage does the source give for U9C U49C U122C here?
A: 0

Q: For A22G A52G A98U U122C A140G, which self-cleavage is on record?
A: 1.89

Q: Which self-cleavage does the source give for A60G U102C C113U here?
A: 0.18

Q: With C45A A51G U103A as the variant, how does the self-cleavage read?
A: 0.74

Q: For U72A A117G A129G, which self-cleavage is on record?
A: 0.08

Q: Which self-cleavage does the source give for U2C A89G A94G U102C here?
A: 1.46

Q: Which self-cleavage does the source give for A89G A92G C107A A114G A116U here?
A: 0.01

Q: For G41A A62G A63G U139C, which self-cleavage is on record?
A: 1.42

Q: With G21U A56G A117G U139C as the variant, how does the self-cleavage read?
A: 1.59

Q: With A23G U72C A118G U120C as the variant, how does the self-cleavage read?
A: 0.02

Q: For U37C A55U A60U U102A, which self-cleavage is on record?
A: 0.91

Q: Which self-cleavage does the source give for A82U A110G U132G here?
A: 0.02

Q: Which self-cleavage does the source give for A64G A69G A94G A96G U108C A114U here?
A: 0.01

Q: With U19A A67G U87A as the variant, how does the self-cleavage read?
A: 1.73

Q: Which self-cleavage does the source give for U3C A5G A117U here?
A: 0.67

Q: With A91G U97C A118G as the variant, how does the self-cleavage read?
A: 0.57

Q: For G14A A22G A95G, which self-cleavage is on record?
A: 1.57

Q: With C45U A111G U132A as the variant, how does the self-cleavage read?
A: 0.04

Q: Which self-cleavage does the source give for A89U U100A A117G here?
A: 0.75

Q: Which self-cleavage does the source give for A23G A47G A59G G99A here?
A: 0.44

Q: Which self-cleavage does the source give for U39C C45A U49C U57A U108C here?
A: 0.02

Q: Which self-cleavage does the source give for A51U A111U U130C here?
A: 0.03

Q: For G7A U9C U38C U49G U87C U131C, which self-cleavage is on record?
A: 0.7

Q: For A60G A89U U100C, which self-cleavage is on record?
A: 2.15

Q: For A11G A24G U38C A94U C128A, which self-cleavage is on record?
A: 0.35

Q: For A62U A92G U120C U130C, which self-cleavage is on record?
A: 0.44

Q: With A33G A36U U108A U131C as the variant, how does the self-cleavage read?
A: 0.01

Q: For C32A U49C A51U A69G, which self-cleavage is on record?
A: 1.4

Q: For U37C A92U A140U, which self-cleavage is on record?
A: 1.48

Q: With A51U U124C A129G as the variant, how does the self-cleavage read?
A: 0.37

Q: Which self-cleavage does the source give for C42U A54G A92C A96G A116G U124A here?
A: 0.76

Q: For U3A A23G U57C A59G A64G A96G, which self-cleavage is on record?
A: 0.09

Q: Which self-cleavage does the source give for A52G A92G A94G here?
A: 1.18

Q: For A5G G73U A96G A116U, which self-cleavage is on record?
A: 0.1

Q: For A27G U37A U87A A129G U132C A140G, which self-cleavage is on record?
A: 0.75

Q: For U9C A36G A55G, which self-cleavage is on record?
A: 1.17

Q: For A52G A64G A98G A111G, which self-cleavage is on record?
A: 0.03

Q: For A114U U131C A140G, which self-cleavage is on record?
A: 0.01

Q: With U70C C85U A117G as the variant, how does the self-cleavage read?
A: 1.09

Q: With A27G C45U A54G A68G as the variant, how does the self-cleavage read?
A: 0.78

Q: Which self-cleavage does the source give for A59U A96G C105A here?
A: 0.03

Q: With G1C A18G U103C as the variant, how does the self-cleavage read?
A: 0.36

Q: Which self-cleavage does the source give for U26C U38C A92G here?
A: 1.81

Q: For G7A A54G A66G, which self-cleavage is on record?
A: 2.43

Q: For G28A A68G U72A A116G, which self-cleavage is on record?
A: 0.06

Q: With A24G A51G A55G A135G as the variant, how does the self-cleavage read?
A: 1.64

Q: With U39C U70C G136A as the variant, how does the self-cleavage read?
A: 1.36

Q: With A23G A67U G75A as the variant, how does the self-cleavage read?
A: 0.04

Q: For A33C A51U A54U, which self-cleavage is on record?
A: 1.44

Q: With U43C A52G A59U A68G as the variant, how does the self-cleavage read?
A: 0.9

Q: With A47G A67U U108C as the variant, how does the self-cleavage read?
A: 0.01

Q: For U19C U39A A126G, which self-cleavage is on record?
A: 1.4

Q: With A30G U103A G137A as the variant, how does the self-cleavage read?
A: 0.83

Q: Which self-cleavage does the source give for A63G A114U U130C here?
A: 0.03

Q: With U70C G84C A91G A92G as the variant, how does the self-cleavage read?
A: 0.24

Q: With C25U U26C A78G U102C U131C as the variant, how does the self-cleavage read?
A: 0.24

Q: With U39A A51U A111G as the variant, how does the self-cleavage read?
A: 0.03

Q: With U37C A56G U133G as the variant, how does the self-cleavage read?
A: 2.23

Q: For A47G A60G A110G U132C, which self-cleavage is on record?
A: 0.15

Q: For A22U A51G A96G, which self-cleavage is on record?
A: 2.03

Q: Which self-cleavage does the source give for G20A A54G U57A A60G here?
A: 0.35

Q: For A24G A30U A51G A82U, which self-cleavage is on record?
A: 0.11

Q: Which self-cleavage does the source give for A68U C77A U127A here?
A: 0.92

Q: Which self-cleavage does the source give for A5G U103C U131C here?
A: 0.39

Q: For U87C A92C A96G, which self-cleavage is on record?
A: 1.83

Q: For A67G U103C A135U, which self-cleavage is on record?
A: 1.03

Q: With A11C A56G A118G as the variant, how does the self-cleavage read?
A: 1.39

Q: With A54G A63G U100A A126G as the variant, how does the self-cleavage read?
A: 0.37
